Data from patent US20260174788A1 (priority 2023, published 2026).
Like-named read-outs stand apart in the source and are kept apart here.

How the values were obtained:
[1] = system: BCG-unresponsive HR NMIBC CIS; conditions: cited from earlier work
[2] = system: participants with HR NMIBC unresponsive to prior intravesical BCG therapy

CCCCC(=O)OCC(=O)[C@]1(O)Cc2c(O)c3c(c(O)c2[C@@H](O[C@H]2C[C@H](NC(=O)C(F)(F)F)[C@H](O)[C@H](C)O2)C1)C(=O)c1c(OC)cccc1C3=O [valrubicin]
complete response rate ([1]; in vivo): about 20%

cetrelimab: IgG4/K antagonistic anti-PD-1 antibody, heavy chain of SEQ ID NO: 9 and light chain of SEQ ID NO: 10
Diarrhea, Grade ≥3 ([2]; cutoff 4 Apr. 2023): 0 n (%) | Diarrhea, any grade ([2]; cutoff 4 Apr. 2023): 5 (20.8) n (%) | Dysuria, Grade ≥3 ([2]; cutoff 4 Apr. 2023): 0 n (%) | Dysuria, any grade ([2]; cutoff 4 Apr. 2023): 1 (4.2) n (%) | Grade 3 or higher Immune-related TEAEs ([2]; cutoff 4 Apr. 2023): 2 (8.3%) subjects (%) | Grade >=3 Related TEAEs ([2]; cutoff 4 Apr. 2023): 1 (4.2%) subjects (%) | Grade >=3 Related TEAEs: Cetrelimab ([2]; cutoff 4 Apr. 2023): 1 (4.2%) subjects (%) | Grade >=3 Related TEAEs: Insertion Procedure ([2]; cutoff 4 Apr. 2023): 0 subjects (%) | Grade >=3 Related TEAEs: Removal Procedure ([2]; cutoff 4 Apr. 2023): 0 subjects (%) | Grade >=3 Related TEAEs: TAR-200 ([2]; cutoff 4 Apr. 2023): 0 subjects (%) | Grade >=3 Related TEAEs: Urinary Placement Catheter ([2]; cutoff 4 Apr. 2023): 0 subjects (%) | Grade >=3 TEAEs ([2]; cutoff 4 Apr. 2023): 1 (4.2%) subjects (%) | Immune-related TEAEs ([2]; cutoff 4 Apr. 2023): 12 (50.0%) subjects (%) | Micturition urgency, Grade ≥3 ([2]; cutoff 4 Apr. 2023): 0 n (%) | Micturition urgency, any grade ([2]; cutoff 4 Apr. 2023): 1 (4.2) n (%) | Noninfective cystitis, Grade ≥3 ([2]; cutoff 4 Apr. 2023): 0 n (%) | Noninfective cystitis, any grade ([2]; cutoff 4 Apr. 2023): 0 n (%) | Pollakiuria, Grade ≥3 ([2]; cutoff 4 Apr. 2023): 0 n (%) | Pollakiuria, any grade ([2]; cutoff 4 Apr. 2023): 0 n (%) | Pruritus, Grade ≥3 ([2]; cutoff 4 Apr. 2023): 0 n (%) | Pruritus, any grade ([2]; cutoff 4 Apr. 2023): 5 (20.8) n (%) | Related Serious TEAEs ([2]; cutoff 4 Apr. 2023): 2 (8.3%) subjects (%) | Related Serious TEAEs: Cetrelimab ([2]; cutoff 4 Apr. 2023): 2 (8.3%) subjects (%) | Related Serious TEAEs: Insertion Procedure ([2]; cutoff 4 Apr. 2023): 0 subjects (%) | Related Serious TEAEs: Removal Procedure ([2]; cutoff 4 Apr. 2023): 0 subjects (%) | Related Serious TEAEs: TAR-200 ([2]; cutoff 4 Apr. 2023): 0 subjects (%) | Related Serious TEAEs: Urinary Placement Catheter ([2]; cutoff 4 Apr. 2023): 0 subjects (%) | Related TEAEs ([2]; cutoff 4 Apr. 2023): 12 (50.0%) subjects (%) | Related TEAEs Leading to Discontinuation: Cetrelimab ([2]; cutoff 4 Apr. 2023): 1 (4.2%) subjects (%) | Related TEAEs Leading to Discontinuation: Insertion Procedure ([2]; cutoff 4 Apr. 2023): 0 subjects (%) | Related TEAEs Leading to Discontinuation: Removal Procedure ([2]; cutoff 4 Apr. 2023): 0 subjects (%) | Related TEAEs Leading to Discontinuation: TAR-200 ([2]; cutoff 4 Apr. 2023): 0 subjects (%) | Related TEAEs Leading to Discontinuation: Urinary Placement Catheter ([2]; cutoff 4 Apr. 2023): 0 subjects (%) | Related TEAEs Leading to Treatment Discontinuation ([2]; cutoff 4 Apr. 2023): 1 (4.2%) subjects (%) | Related TEAEs with Fatal Outcome ([2]; cutoff 4 Apr. 2023): 0 subjects (%) | Related TEAEs with Fatal Outcome: Cetrelimab ([2]; cutoff 4 Apr. 2023): 0 subjects (%) | Related TEAEs with Fatal Outcome: Insertion Procedure ([2]; cutoff 4 Apr. 2023): 0 subjects (%) | Related TEAEs with Fatal Outcome: Removal Procedure ([2]; cutoff 4 Apr. 2023): 0 subjects (%) | Related TEAEs with Fatal Outcome: TAR-200 ([2]; cutoff 4 Apr. 2023): 0 subjects (%) | Related TEAEs with Fatal Outcome: Urinary Placement Catheter ([2]; cutoff 4 Apr. 2023): 0 subjects (%) | Related TEAEs: Cetrelimab ([2]; cutoff 4 Apr. 2023): 12 (50.0%) subjects (%) | Related TEAEs: Insertion Procedure ([2]; cutoff 4 Apr. 2023): 0 subjects (%) | Related TEAEs: Removal Procedure ([2]; cutoff 4 Apr. 2023): 0 subjects (%) | Related TEAEs: TAR-200 ([2]; cutoff 4 Apr. 2023): 0 subjects (%) | Related TEAEs: Urinary Placement Catheter ([2]; cutoff 4 Apr. 2023): 0 subjects (%) | Serious TEAEs ([2]; cutoff 4 Apr. 2023): 2 (8.3%) subjects (%) | TEAEs Leading to Treatment Discontinuation ([2]; cutoff 4 Apr. 2023): 1 (4.2%) subjects (%) | TEAEs with Fatal Outcome ([2]; cutoff 4 Apr. 2023): 0 subjects (%) | Urinary tract infection, Grade ≥3 ([2]; cutoff 4 Apr. 2023): 0 n (%) | Urinary tract infection, any grade ([2]; cutoff 4 Apr. 2023): 4 (16.7) n (%) | ≥1 AE, Grade ≥3 ([2]; cutoff 4 Apr. 2023): 2 (8.3) n (%) | ≥1 AE, any grade ([2]; cutoff 4 Apr. 2023): 19 (79.2) n (%) | TEAEs ([2]; cutoff 4 Apr. 2023, safety set 23 TAR-200, 24 CET): 19 (79.2%) subjects (%) | COVID-19 associated Non-serious TEAEs ([2]; cutoff 20 Feb. 2023): 4 (17.4%) subjects (%) | COVID-19 associated Serious TEAEs ([2]; cutoff 20 Feb. 2023): 0 subjects (%) | COVID-19 associated TEAEs ([2]; cutoff 20 Feb. 2023): 4 (17.4%) subjects (%) | Grade >=3 Related TEAEs ([2]; cutoff 20 Feb. 2023): 2 (8.7%) subjects (%) | Grade >=3 Related TEAEs: Cetrelimab ([2]; cutoff 20 Feb. 2023): 2 (8.7%) subjects (%) | Grade >=3 Related TEAEs: Insertion Procedure ([2]; cutoff 20 Feb. 2023): 0 subjects (%) | Grade >=3 Related TEAEs: Removal Procedure ([2]; cutoff 20 Feb. 2023): 0 subjects (%) | Grade >=3 Related TEAEs: TAR-200 ([2]; cutoff 20 Feb. 2023): 0 subjects (%) | Grade >=3 Related TEAEs: Urinary Placement Catheter ([2]; cutoff 20 Feb. 2023): 0 subjects (%) | Grade >=3 TEAEs ([2]; cutoff 20 Feb. 2023): 2 (8.7%) subjects (%) | Immune related TEAEs (irAEs) as reported by the investigator ([2]; cutoff 20 Feb. 2023): 10 (43.5%) participants (%) | Median time for grade 3 or higher irAEs to be resolved or improved ([2]; cutoff 20 Feb. 2023): 51.5 days | Related Serious TEAEs ([2]; cutoff 20 Feb. 2023): 1 (4.3%) subjects (%) | Related Serious TEAEs: Cetrelimab ([2]; cutoff 20 Feb. 2023): 1 (4.3%) subjects (%) | Related Serious TEAEs: Insertion Procedure ([2]; cutoff 20 Feb. 2023): 0 subjects (%) | Related Serious TEAEs: Removal Procedure ([2]; cutoff 20 Feb. 2023): 0 subjects (%) | Related Serious TEAEs: TAR-200 ([2]; cutoff 20 Feb. 2023): 0 subjects (%) | Related Serious TEAEs: Urinary Placement Catheter ([2]; cutoff 20 Feb. 2023): 0 subjects (%) | Related TEAEs ([2]; cutoff 20 Feb. 2023): 10 (43.5%) subjects (%) | Related TEAEs Leading to Discontinuation: Cetrelimab ([2]; cutoff 20 Feb. 2023): 1 (4.3%) subjects (%) | Related TEAEs Leading to Discontinuation: Insertion Procedure ([2]; cutoff 20 Feb. 2023): 0 subjects (%) | Related TEAEs Leading to Discontinuation: Removal Procedure ([2]; cutoff 20 Feb. 2023): 0 subjects (%) | Related TEAEs Leading to Discontinuation: TAR-200 ([2]; cutoff 20 Feb. 2023): 0 subjects (%) | Related TEAEs Leading to Discontinuation: Urinary Placement Catheter ([2]; cutoff 20 Feb. 2023): 0 subjects (%) | Related TEAEs Leading to Treatment Discontinuation ([2]; cutoff 20 Feb. 2023): 1 (4.3%) subjects (%) | Related TEAEs with Fatal Outcome ([2]; cutoff 20 Feb. 2023): 0 subjects (%) | Related TEAEs with Fatal Outcome: Cetrelimab ([2]; cutoff 20 Feb. 2023): 0 subjects (%) | Related TEAEs with Fatal Outcome: Insertion Procedure ([2]; cutoff 20 Feb. 2023): 0 subjects (%) | Related TEAEs with Fatal Outcome: Removal Procedure ([2]; cutoff 20 Feb. 2023): 0 subjects (%) | Related TEAEs with Fatal Outcome: TAR-200 ([2]; cutoff 20 Feb. 2023): 0 subjects (%) | Related TEAEs with Fatal Outcome: Urinary Placement Catheter ([2]; cutoff 20 Feb. 2023): 0 subjects (%) | Related TEAEs: Cetrelimab ([2]; cutoff 20 Feb. 2023): 10 (43.5%) subjects (%) | Related TEAEs: Insertion Procedure ([2]; cutoff 20 Feb. 2023): 0 subjects (%) | Related TEAEs: Removal Procedure ([2]; cutoff 20 Feb. 2023): 0 subjects (%) | Related TEAEs: TAR-200 ([2]; cutoff 20 Feb. 2023): 0 subjects (%) | Related TEAEs: Urinary Placement Catheter ([2]; cutoff 20 Feb. 2023): 0 subjects (%) | Serious TEAEs ([2]; cutoff 20 Feb. 2023): 4.3 subjects (%) | TEAE pruritus ([2]; cutoff 20 Feb. 2023): 21.7% | TEAEs Leading to Treatment Discontinuation ([2]; cutoff 20 Feb. 2023): 1 (4.3%) subjects (%) | TEAEs with Fatal Outcome ([2]; cutoff 20 Feb. 2023): 0 subjects (%) | Participants with an irAE who required treatment with a steroid ([2]; cutoff 20 Feb. 2023, 10 with irAE): 50.0% | Serious TEAEs ([2]; cutoff 20 Feb. 2023, listed as CET): 1 (4.3%) subjects (%) | Participants given steroid for irAEs of toxicity grade 3 or higher ([2]; cutoff 20 Feb. 2023, oral): 1 | TEAEs ([2]; cutoff 20 Feb. 2023, treated 22 TAR-200, 23 CET): 18 (78.3%) subjects (%)

Keytruda: Keytruda (pembrolizumab), an immune checkpoint therapy
complete response rate ([1]; […]): about 42% | 12-month complete response rate ([1]; in vivo): 19% | 12-month complete response rate ([1]; in vivo, listed as pembrolizumab): 18%

atezolizumab: other treatment option for BCG-unresponsive HR NMIBC CIS
12-month complete response rate ([1]; in vivo): 15%

nadofaragene firadenovec
12-month complete response rate ([1]; in vivo): 23%
